Source: the supplement of paper PMC4604168 (melanoma cell lines)
The list shows a part of the results. Single values are uncertain, as repeats are few or missing.

How the values were obtained:
Assay in all cases: cell count relative to DMSO control; melanoma cells; higher = more viable cells
Details in all cases: library dose: standard library concentration; 72 h
SkMel30 = tested on: SkMel30
SkMel5 = tested on: SkMel5
UACC257 = tested on: UACC257
UACC62 = tested on: UACC62
WM115 = tested on: WM115
WM1716 = tested on: WM1716
WM1745 = tested on: WM1745
WM3526 = tested on: WM3526
WM3619 = tested on: WM3619
WM451Lu = tested on: WM451Lu
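Note: cells treated in 1,536-well plates, then fixed and DAPI-stained, with nuclei counted from automated high-throughput microscope images.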

Row | SMILES | cell count (SkMel30) [%] | cell count (SkMel5) [%] | cell count (UACC257) [%] | cell count (UACC62) [%] | cell count (WM115) [%] | cell count (WM1716) [%] | cell count (WM1745) [%] | cell count (WM3526) [%] | cell count (WM3619) [%] | cell count (WM451Lu) [%]
1 | O=C(O)C(=O)Nc1sc2c(c1C(=O)O)CCNC2 + O=c1cc(-c2cccc3c2Sc2ccccc2S3)oc(N2CCOCC2)c1 [KU55933] (first compound 8.33333 µM, partner dose 5 µM) | 123 | 82.9 | 93.9 | 155 | 108 | 91.9 | 86.3 | 90.1 | 110 | 93
2 | COc1ccc2c(c1)CCC1C2CCC2(C)C(NCCCCCCN3C(=O)C=CC3=O)CCC12 (stereo not given) + O=C1NC(=O)/C(=C/c2ccc(-c3ccc(F)cc3O)o2)S1 [AS252424] (first compound 2 µM, partner dose 5 µM) | 88.8 | 68.3 | 91 | 54.5 | 85.8 | 79.9 | 75.6 | 87.2 | 61.1 | 90.6
3 | N#Cc1c(O)c2c(-c3ccc(-c4ccccc4O)cc3)csc2[nH]c1=O + c1cc(-c2cnn3cc(-c4ccc(OCCN5CCCCC5)cc4)cnc23)ccn1 [Dorsomorphin] (first compound 10 µM, partner dose 2 µM) | 97.2 | 71.7 | 85.4 | 113 | 80.8 | 101 | 69.9 | 88.5 | 94 | 80.9
4 | Oc1cc(-c2nc(-c3ccccc3)[nH]c2-c2ccncc2)ccc1Cl + Cn1cc(/C=C2\C(=O)Nc3cccnc32)c2ccccc21 [GW441756] (first compound 1 µM, partner dose 2 µM) | 71.1 | 46 | 83.8 | 44.3 | 46.5 | 86.7 | 44.8 | 44.7 | 77.2 | 47.7
5 | O=S(=O)(c1ccccc1)N(CC(F)(F)F)c1ccc(C(O)(C(F)(F)F)C(F)(F)F)cc1 + CCCCCCCCCCCC1=C(O)C(=O)C=C(O)C1=O [Embelin] (first compound 7 µM, partner dose 6 µM) | 96.7 | 83.7 | 86.8 | 78.9 | 71.4 | 96.3 | 64.1 | 86.9 | 78.4 | 99.6
6 | Cc1cc([N+](=O)[O-])ccc1NS(=O)(=O)c1cc(Cl)ccc1Cl + O=c1cc(-c2cccc3c2Sc2ccccc2S3)oc(N2CCOCC2)c1 [KU55933] (first compound 5 µM, partner dose 5 µM) | 73.3 | 76.4 | 73.6 | 73.4 | 77.7 | 80.9 | 67.2 | 71.7 | 57.5 | 90.8
7 | c1cc(-c2cnn3cc(-c4ccc(OCCN5CCCCC5)cc4)cnc23)ccn1 [Dorsomorphin] + CC(C)CCN1c2nc(Nc3cc(F)c(O)c(F)c3)ncc2N(C)C(=O)C1C [BID1870] (first compound 2 µM, partner dose 1 µM) | 70.4 | 54.8 | 76 | 58.7 | 82.2 | 64.9 | 55.4 | 56.6 | 59.6 | 54
8 | O=c1cc(-c2cccc3c2Sc2ccccc2S3)oc(N2CCOCC2)c1 + CC(C)CCN1c2nc(Nc3cc(F)c(O)c(F)c3)ncc2N(C)C(=O)C1C [BID1870] (first compound 5 µM, partner dose 1 µM) | 78.6 | 66.9 | 76.5 | 76.7 | 81.5 | 70.4 | 87.7 | 58.3 | 62 | 70.5
9 | COC(=O)c1sccc1S(=O)(=O)Nc1ccc(Nc2ccccc2)cc1OC + COc1ccc(-c2ccc3c(N4CCOCC4)nc(N4C[C@@H](C)O[C@@H](C)C4)nc3n2)cc1CO [KU0063794] (first compound 5 µM, partner dose 0.1 µM) | 83.9 | 77.5 | 100 | 99.4 | 88.1 | 101 | 90 | 98.5 | 76.1 | 92.3
10 | O=C(O)C(=O)Nc1sc2c(c1C(=O)O)CCNC2 + O=C1NC(=O)/C(=C/c2ccc(-c3ccc(F)cc3O)o2)S1 [AS252424] (first compound 8.33333 µM, partner dose 5 µM) | 83.8 | 69.9 | 88.3 | 104 | 85.8 | 92.1 | 63.4 | 72.2 | 90.2 | 96.9
11 | COc1ccc2c(c1)CCC1C2CCC2(C)C(NCCCCCCN3C(=O)C=CC3=O)CCC12 (stereo not given) + c1cc(-c2cnn3cc(-c4ccc(OCCN5CCCCC5)cc4)cnc23)ccn1 [Dorsomorphin] (first compound 2 µM, partner dose 2 µM) | 83.5 | 71.4 | 59.4 | 52.9 | 68.8 | 86.1 | 49.2 | 94 | 45.4 | 88
12 | Cc1cc([N+](=O)[O-])ccc1NS(=O)(=O)c1cc(Cl)ccc1Cl + COc1cc(N2CCC(N3CCN(C)CC3)CC2)ccc1Nc1ncc(Cl)c(Nc2ccccc2S(=O)(=O)C(C)C)n1 [NVP-TAE684] (first compound 5 µM, partner dose 0.4 µM) | 81.3 | 49.4 | 65.6 | 93.3 | 69.1 | 5.71 | 59.4 | 65.3 | 65.8 | 87.6
13 | O=S(=O)(c1ccccc1)N(CC(F)(F)F)c1ccc(C(O)(C(F)(F)F)C(F)(F)F)cc1 + Oc1nc(-c2ccc(C(F)(F)F)cc2)nc2c1CSCC2 [XAV939] (first compound 7 µM, partner dose 10 µM) | 75.4 | 91.5 | 76.8 | 103 | 96.3 | 82 | 69.6 | 107 | 71.9 | 115
14 | COc1ccc2c(c1)CCC1C2CCC2(C)C(NCCCCCCN3C(=O)C=CC3=O)CCC12 (stereo not given) + O=S(=O)(c1ccccc1)N(CC(F)(F)F)c1ccc(C(O)(C(F)(F)F)C(F)(F)F)cc1 [T0901317] (first compound 2 µM, partner dose 7 µM) | 79.9 | 63 | 75.6 | 74.3 | 85.3 | 64.9 | 65.4 | 80.3 | 69 | 76.1
15 | O=S(=O)(c1ccccc1)N(CC(F)(F)F)c1ccc(C(O)(C(F)(F)F)C(F)(F)F)cc1 + O=C1NC(=O)/C(=C/c2ccc(-c3ccc(F)cc3O)o2)S1 [AS252424] (first compound 7 µM, partner dose 5 µM) | 86.4 | 64.3 | 91.2 | 96.9 | 101 | 149 | 61.6 | 72.3 | 56.2 | 94
16 | N#Cc1c(O)c2c(-c3ccc(-c4ccccc4O)cc3)csc2[nH]c1=O + COc1ccc(COc2ccc(Cc3cnc(N)nc3N)cc2OC)cc1 [GW2580] (first compound 10 µM, partner dose 5 µM) | 122 | 89.3 | 90.5 | 126 | 95.5 | 99.1 | 79.1 | 78.3 | 95.8 | 94.8
17 | COc1ccc(COc2ccc(Cc3cnc(N)nc3N)cc2OC)cc1 + O=C1NC(=O)/C(=C/c2ccc(-c3ccc(F)cc3O)o2)S1 [AS252424] (first compound 5 µM, partner dose 5 µM) | 112 | 91.6 | 103 | 108 | 93.2 | 109 | 97.2 | 92 | 78.8 | 106
18 | Oc1cc(-c2nc(-c3ccccc3)[nH]c2-c2ccncc2)ccc1Cl + CC(C)CCN1c2nc(Nc3cc(F)c(O)c(F)c3)ncc2N(C)C(=O)C1C [BID1870] (first compound 1 µM, partner dose 1 µM) | 71.2 | 58.8 | 77.3 | 57.8 | 64 | 57.3 | 54 | 46.8 | 42.5 | 51.8
19 | O=C(O)C(=O)Nc1sc2c(c1C(=O)O)CCNC2 + Cc1cc([N+](=O)[O-])ccc1NS(=O)(=O)c1cc(Cl)ccc1Cl [FH535] (first compound 8.33333 µM, partner dose 5 µM) | 78 | 71 | 55.2 | 87 | 76.8 | 82.5 | 52.8 | 67.7 | 57.4 | 97.8
20 | Oc1cc(-c2nc(-c3ccccc3)[nH]c2-c2ccncc2)ccc1Cl + COc1cc(N2CCC(N3CCN(C)CC3)CC2)ccc1Nc1ncc(Cl)c(Nc2ccccc2S(=O)(=O)C(C)C)n1 [NVP-TAE684] (first compound 1 µM, partner dose 0.4 µM) | 102 | 58.9 | 93.6 | 41.2 | 41.8 | 65.4 | 23.3 | 39.9 | 63.4 | 52.3
21 | Oc1nc(-c2ccc(C(F)(F)F)cc2)nc2c1CSCC2 + O=c1cc(-c2cccc3c2Sc2ccccc2S3)oc(N2CCOCC2)c1 [KU55933] (first compound 10 µM, partner dose 5 µM) | 88.7 | 76.4 | 83.1 | 112 | 86.5 | 71.1 | 65 | 86.1 | 66.8 | 91.6
22 | COc1cc2ncnc(Nc3ccc(Oc4ccccc4)cc3)c2cc1OC + CC(C)CCN1c2nc(Nc3cc(F)c(O)c(F)c3)ncc2N(C)C(=O)C1C [BID1870] (first compound 10 µM, partner dose 1 µM) | 80 | 69.8 | 84.2 | 67.3 | 53 | 54.6 | 54 | 54.7 | 61 | 60.8
23 | COc1ccc(-c2ccc3c(N4CCOCC4)nc(N4C[C@@H](C)O[C@@H](C)C4)nc3n2)cc1CO + Oc1nc(-c2ccc(C(F)(F)F)cc2)nc2c1CSCC2 [XAV939] (first compound 0.1 µM, partner dose 10 µM) | 94.4 | 65.8 | 85.9 | 97.2 | 63 | 82.1 | 69.4 | 81.2 | 59.8 | 100
